Sequences and labels used below:
B1: LINE1-mini (parent)
chain: GGCAGAGCUCAACACAGCGUGGCAAAGUGGCUGUGGCUAGACUGCC

The source gives no read counts; variants with many changes may rest on few reads.

The variants in this data set derive from B1. Nature of the data set: self-cleavage, relative activity (ratio to wild type); higher = more cleavage; in vitro, sequencing; the parent is a self-cleaving ribozyme.
For U9G C18U G21A, the self-cleavage was 0.13.

For the variant C8G G27C A39G G40U C42G, the self-cleavage was determined as 0.01.

C8A G17A C31U U32A: the self-cleavage was 0.07.

For G5A U43A C45G, the self-cleavage was 0.04.

As to G1C U32C U38A G44U C46U, the self-cleavage turned out to be 0.01.

For A14G U32C U34A U38C, the self-cleavage amounted to 0.03.

For the variant A12G C23A C31U U34A G35U C42G C45A, the self-cleavage came out at 0.01.

Regarding G5U C13G G35U, the self-cleavage is 0.17.

As for G7C G35C G44C, the self-cleavage came to 0.05.

On to G7A C31A G35U, for which the self-cleavage was found to be 0.19.

Consider A14C C42U C45U, for which the self-cleavage worked out at 0.09.

For G7C G33U G36C, the self-cleavage was found to be 0.03.

In the case of G22C C23A G30C G36U, the self-cleavage is 0.02.

For A14C G19C G36U U43A, the self-cleavage came out at 0.04.

As for A4C C8A G19C A26G C37A C45G, the self-cleavage was 0.01.

As to C8G U32C C45G, the self-cleavage was determined as 0.08.

As to G17C C18A G27U U32C G36A G40U C42G, the self-cleavage is 0.03.

Consider C10G A12C G27U U28C, for which the self-cleavage was 0.01.

As for A6G C13U A16U G21U G27U C31U G36C, the self-cleavage turned out to be 0.01.

As to C10A C15A C18G C23G G35A, the self-cleavage turned out to be 0.01.

In the case of C18G C37U A41C, the self-cleavage came to 0.03.

In the case of A12U G19A G33A G36A G44U C46A, the self-cleavage came to 0.02.

Turning to G2A C10A U38A G44A, the self-cleavage came to 0.14.

For A4G C18A G33C C42A, the self-cleavage was 0.29.

With G2U A4G G7U A11G G22U C46A, the self-cleavage was 0.01.

As to G5U C8G U34G, the self-cleavage stood at 0.03.

Regarding A16G G19C A26G G35U, the self-cleavage turned out to be 0.04.

With G5U G7C C42A, the self-cleavage stood at 0.18.

Take G7U C18A G22A A24G A25U G35U: the self-cleavage came out at 0.09.

For A24G G36C G40U, the self-cleavage is 0.

Consider G22C G29U G30U, for which the self-cleavage turned out to be 0.22.

With A16C G21A A26C C45U, the self-cleavage came out at 0.01.

Regarding U20C C42U C46G, the self-cleavage is 0.05.

In the case of G21U C37G U38G, the self-cleavage worked out at 0.01.

Consider C18A C31U U38G, for which the self-cleavage was 0.01.

Take G1U A11C A14U G29A C37A: the self-cleavage is 0.

Take A11G C13G A14U: the self-cleavage stood at 0.03.

Regarding C3G U9C C31U G35U G40C C42U G44C, the self-cleavage was found to be 0.02.

For G5A C10G A24G, the self-cleavage is 0.01.

For C3A G21A G36A, the self-cleavage was determined as 2.91.

With G7A C10G G33U G36U, the self-cleavage amounted to 0.03.

For C42G G44A C45G, the self-cleavage came to 0.07.

For C18U G30A G36C, the self-cleavage was 0.06.

As to A4C C10U G33U, the self-cleavage was 0.02.

As for C13A A16C G33U C46G, the self-cleavage came to 0.03.

Take A4C A12U G33C: the self-cleavage was found to be 0.08.

Take G5U U9G U43C: the self-cleavage came out at 0.02.

On to G17C A24U A41G, for which the self-cleavage was found to be 0.06.

As to C8U A12U A41U, the self-cleavage turned out to be 0.46.

In the case of A14U G22A G27A G29A, the self-cleavage is 0.71.

Take G5C G27U U28C G35A: the self-cleavage turned out to be 0.08.

Take G29C G30C G33C: the self-cleavage was found to be 0.01.

As to C3A G27U G29U, the self-cleavage amounted to 0.25.

With C8A U9A A41C, the self-cleavage was 0.07.

As to G1U C10U G33U, the self-cleavage was found to be 0.01.

Regarding G2A A4U A14U, the self-cleavage worked out at 0.07.

For the variant G1C C8G A11C G17A G21A, the self-cleavage was 0.02.

Take C8A U9C A26C G29C G36U: the self-cleavage turned out to be 0.03.

Take G21A G29U G35A: the self-cleavage was 0.3.

With A14G G19A C31A G44A, the self-cleavage came to 0.1.

For the variant C18U G33C U38G, the self-cleavage was 0.02.

Turning to G17U A24C G29C, the self-cleavage turned out to be 0.04.

As for C3U G19C C23A G27C C45A, the self-cleavage came to 0.12.

In the case of A4C U34C U43G C46A, the self-cleavage worked out at 0.05.

With C10U G29A A39C, the self-cleavage is 0.12.

For the variant G7U A25C U43G, the self-cleavage is 0.07.

As for G5C C8U U9A C13A G40U, the self-cleavage was determined as 0.13.

Consider C13A G27U A41C, for which the self-cleavage was 0.08.

Consider A4U U28A A41G C45A, for which the self-cleavage is 0.01.

As for G1U C18A G21U G22C A24C, the self-cleavage amounted to 0.04.

Consider U9G A12C C13A G19A, for which the self-cleavage was found to be 0.03.

For C10A C18G G27A C31U A39C C42A, the self-cleavage came to 0.

Regarding A4U C10U C13U G35U C37A A39C, the self-cleavage was 0.03.

As to G5C G21C G33A, the self-cleavage amounted to 0.62.

Take G5U C10A A41U: the self-cleavage is 0.03.

Take C13U C18U A26U: the self-cleavage worked out at 0.04.

On to C10G C23A G29U, for which the self-cleavage came to 0.05.

Take A4G G22C G27A U43A: the self-cleavage was 0.03.

As to G2A G21U U28A C42A, the self-cleavage was 0.12.

As to G17C A24G C31U G35A G40A, the self-cleavage came out at 0.01.

C13U C15G A26C G35C: the self-cleavage is 0.01.

Take G1U C31G C37G U43G: the self-cleavage is 0.

As to C3U C42G C45A, the self-cleavage came to 0.01.

With G5A C10U A26C A41U, the self-cleavage stood at 0.07.

As to G5U G7U A11U A12C, the self-cleavage turned out to be 0.05.

With G5C C15U G21C C31G C37U, the self-cleavage is 0.08.

Turning to C13U G30A C31A G33A U34A, the self-cleavage came to 0.08.

On to C10A U20G G21C C23U A26U G40U, for which the self-cleavage came to 0.01.

C31A U38C G44C: the self-cleavage was found to be 0.02.

On to G7A G19U G27A, for which the self-cleavage was 0.16.

Take A4C A6U G22C U32A: the self-cleavage was determined as 0.05.

On to A14U U34C C46U, for which the self-cleavage worked out at 0.05.

On to C18A G19C G29U U32G A39C, for which the self-cleavage was determined as 0.04.

For A6C G30C G35U, the self-cleavage stood at 0.19.

For the variant U9A U38A A39G, the self-cleavage was 0.18.

For the variant G1U G7A A16C G35C, the self-cleavage amounted to 0.03.

For the variant G33U U43C G44A, the self-cleavage came to 0.05.

In the case of G21A U28C G30U G44U, the self-cleavage was 0.4.

Turning to A26U G30A U32C A41U, the self-cleavage stood at 0.06.

With G2U A26G C37U A39U, the self-cleavage came out at 0.

Turning to C3A G21A G35C G36U, the self-cleavage was 0.35.

With C15U U38A C42A, the self-cleavage amounted to 0.15.

For the variant U9G G17A U20A A39G C46U, the self-cleavage was 0.

As for G2U A4C G29C U38G, the self-cleavage stood at 0.06.

Turning to G27C U28A G33C U34A, the self-cleavage is 0.

On to C13U U28C A39G A41U G44A C46G, for which the self-cleavage amounted to 0.09.

In the case of A6U G7A A11C C13G C37U, the self-cleavage stood at 0.02.

On to G17U C31U C37A G40C, for which the self-cleavage came to 0.03.

For the variant G2U C3G A4G C42U, the self-cleavage is 0.22.

As to G21C G40A G44U, the self-cleavage was found to be 0.33.

Consider C3U C15U U20G U32A G35U U43A C46A, for which the self-cleavage is 0.01.

For the variant C10U A14G A39U, the self-cleavage was 0.95.

Take G1U G2U C18U G19A G29U U32G U34A: the self-cleavage was 0.04.

For C3U C23U A41C, the self-cleavage came out at 0.05.

With C3A A12C G30U C45A, the self-cleavage turned out to be 0.04.

With A4C A6C C37A, the self-cleavage was 0.01.

As to A6U C8A A26U, the self-cleavage was found to be 0.26.

In the case of A6U G7A A11U, the self-cleavage was determined as 0.03.

As for A4U G5A C8A C46U, the self-cleavage is 0.85.

For the variant G1U A11G C13G, the self-cleavage was 0.

Regarding A24G G44U C46A, the self-cleavage came out at 0.08.

As to G2U C3U C37U, the self-cleavage was found to be 0.04.

Regarding G7A A11G U20A G27A, the self-cleavage was 0.01.

For the variant G5C U32G G36U U38G, the self-cleavage turned out to be 0.03.

Consider G7U U9G C42U C46G, for which the self-cleavage worked out at 0.01.

C23A G29U G33C U34A A39U A41C: the self-cleavage was found to be 0.03.

In the case of C3A C10U G19U, the self-cleavage was determined as 0.14.

For the variant C3A C15G G22A C23G C37G, the self-cleavage is 0.01.

On to G7A A14C U32A, for which the self-cleavage turned out to be 0.01.

As to C13G C31A G44A, the self-cleavage came out at 0.31.

For the variant A11C G27U U43A C46A, the self-cleavage stood at 0.01.

With A11C A14U G21U G22A G27A, the self-cleavage was found to be 0.02.

For the variant A25U G33A C37A, the self-cleavage stood at 0.09.

A4U G7U A12U G19A G36A: the self-cleavage came out at 0.04.

Take A11G U32C C37U G40U C42U: the self-cleavage came to 0.02.

C15G A16U C18G G22U G35U U43C C46U: the self-cleavage is 0.04.

For the variant G2A A6U A11G C18G, the self-cleavage was 0.01.

Take C3A U9G C10G A26U U28C U32C: the self-cleavage came to 0.01.

As to G5U G21A G30U, the self-cleavage stood at 0.18.

Take G7C G19C G35A A39U: the self-cleavage was 0.01.

Consider C13U G35A U38C, for which the self-cleavage stood at 0.15.

Regarding A4C G30C G44A, the self-cleavage came out at 0.11.

As for A4G G21U C42A, the self-cleavage worked out at 2.27.

For the variant C8U A12U G33C, the self-cleavage stood at 0.01.

On to G7A C15A G22A A39G G40C C42U, for which the self-cleavage turned out to be 0.17.

Regarding C18A G22A U38C, the self-cleavage was determined as 1.88.

G5U C8U G30A C31U A39U: the self-cleavage was found to be 0.1.

Regarding G2C G5A A12U G21A G36A C37A U38A, the self-cleavage was determined as 0.11.

In the case of U9A C10U G35C, the self-cleavage was found to be 0.07.

Regarding U9C G30A G44A, the self-cleavage came out at 0.03.

A14C G36C C42U: the self-cleavage worked out at 0.02.

Regarding G1C C10G G22A, the self-cleavage was found to be 0.02.

Regarding G1U A4U U9C, the self-cleavage came out at 0.07.

In the case of A16G A25G G36U, the self-cleavage came to 0.03.

Take A14U G22A A25U U32G G44C: the self-cleavage amounted to 0.04.

Consider G2U A16G C37G G40U, for which the self-cleavage was found to be 0.02.

Take A12C A14G U43A: the self-cleavage came out at 0.04.

With C3G A11C G33U, the self-cleavage is 0.02.

In the case of U28G G33A C46A, the self-cleavage was 0.01.

For C13A G17U U20A G27A, the self-cleavage was found to be 0.05.

Turning to A4U A6U U9A A16C C18U G27U, the self-cleavage stood at 0.17.

Consider C13A G33U U38G U43C, for which the self-cleavage stood at 0.04.

With C31A G35A U43C, the self-cleavage is 0.01.

In the case of G1U A16U U20G A24U G29U G30U, the self-cleavage is 0.03.

On to A26U G36C C42A, for which the self-cleavage is 0.12.

On to G1U G19A C31U, for which the self-cleavage stood at 0.11.

Turning to A11C G35U A39U, the self-cleavage amounted to 0.02.

The record behind these values is the RNAGym collection of RNA variant scans (doi:10.7554/elife.90254).
